In the test the target is T1, human B-RAF, wild type (HA-tagged copy and MYC-tagged copy) (human, UniProt P15056).
T1 construct: Homo sapiens B-RAF; Two differently tagged copies were co-expressed: one carries HA, the other MYC; no chain carries both tags; The construction of the tagged human B-RAF plasmids is not described; also called hB-RAF; human HA-B-RAF; source: HEK293T, transfected (pCS2+), in lysate
Kind of test: co-IP; lysates of co-transfected HEK293T cells (200 ul at 0.5 mg/ml); mouse anti-myc 9E10 overnight at 4 °C, Dynabeads Pan mouse IgG 2 h; five washes in 50 mM Tris HCl pH 7.5, 150 mM NaCl, 10% glycerol, 0.2% Triton X100, 1 mM EDTA; blots with rabbit anti-HA and anti-Myc. The settings on record: partners not purified.

B1: human B-RAF R506E (natural protein)
chain: not shown
notes: Homo sapiens B-RAF with R506E in the dimerization interface; also called hB-RAF R506E; source: HEK293T, transfected (pCS2+), in lysate
For B1, the “fold change of B-RAF co-immunoprecipitated, against wild-type B-RAF” value came to 1.3 fold.

The record behind these values is article PMC10322840, “RAS-independent ERK activation by constitutively active KSR3 in non-chordate metazoa” (Nature Communications, 2023).
